Source: the supplement of paper PMC11417369
Some of the results follow.

Test system: PfHDP1 homeodomain (GST-tagged)
Assay: gcPBM binding intensity (ln(normalized median fluorescence intensity)); higher = stronger DNA binding
Procedure, shortened: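 An Agilent 4 × 180k array carrying primer-extended double-stranded 36-bp intergenic genomic probes and negative controls received GST-tagged P. falciparum DNA-binding domains expressed in E. coli, about 25 μg on average, for 1 h. The binding buffer contained 1× PBS, 1% milk, 0.2 mg/ml BSA, 0.5% salmon testes DNA and 0.03% Triton X-100. Binding intensity is the top Masliner-normalised natural-log median intensity across replicate spots of either probe orientation, read after Alexa488 anti-GST antibody staining and a 488 nm scan.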

| Sequence | gcPBM binding intensity (ln) |
| --- | --- |
| TATTTTCAAAAATATACACACACATAAATATATGTA [CACACA_site8160] | 6.5 |
| ATTTAATTTTCATGATGTACTATAGTTTAATGCACA [XGTACX_site1624] | 9.18 |
| TAATAATCAAACTATACACACATAAATAGATATATA [CACACA_site6220] | 6.52 |
| TGTAAATATAAATGTAATAAATATGTAAAAATAAAT [XGTACX_negctrl_site171] | 6.35 |
| ATCTATATTTTTATAACACACAATGATGTACATTAC [CACACA_site6633] | 6.74 |
| TAGAATAATCTATAAACACACAAACCCAACAAAAGA [CACACA_site6132] | 7.14 |
| TGAAAATATTTTATATGTACATATATTATCAATACA [XGTACX_site92] | 6.64 |
| TTATTTATTTTTTCATGTACTTAAATATATTAATGT [XGTACX_site5804] | 6.66 |
| ATATATAAATTTAATACACACCCAAAAAAAAAAAAA [CACACA_site7719] | 6.57 |
| GAATGAATACGTTTTACACACTTGAATATAATTTCA [CACACA_site989] | 6.36 |
| AAAATTATAAAATGGGCACACATGAAGATTGTAGTA [CACACA_site2226] | 6.67 |
| TAAATATATAAACACACACACATTAATACAGATATT [CACACA_site5851] | 6.78 |
| AATATATAATTAATTGCACACCTTGTCACGCCAAAA [CACACA_site1174] | 8.98 |
| TATTAATACAGACACACACACACACTAATTAAAATA [CACACA_site7967] | 6.97 |
| ATTTACCCTTGCCATGCACACTTTTTTATAGAAAAT [CACACA_site5857] | 8.72 |
| AAAGTATAACGGATACCATTTATGTGATTATTTTGT [XGTACX_negctrl_site188] | 6.1 |
| TATATATTTTTATGCACACACAAAGAAAATTTTCCT [CACACA_site2863] | 10.8 |
| AAAAAAAATTAAAATAAAATATAAATATAAAATATA [GTGCAC_negctrl_site714] | 6.2 |
| AGCTATAATAAATATACACACATATATAAATATGTA [CACACA_site6583] | 6.42 |

| Sequence | gcPBM binding intensity (ln) |
| --- | --- |
| ATATATATATAATAAGTGCAAAAATAATGACCTATA | 9.42 |
| AAATATATATAAGCGTGTACACATTCTGAGTGTTGT [XGTACX_site1088] | 7.09 |
| TATCGTTTTATTCGGTTGCACCAAAAAAATAAAATA [GTGCAC_site9408] | 9.05 |
| ATAATAAAAATAAAATGTACATACATAAATATATAT [XGTACX_site6228] | 6.71 |
| ATACTTTTAATATGCACATGCAAATATGAAATATCG [TGCATGCA_site603] | 10.1 |
| TTTGGCTAGTCAAGTTGTACAAAAAAAAAAAAAAAA [XGTACX_site8382] | 6.18 |
| TACCAAAAGAAACACACACACAAAATATATAAATAT [CACACA_site1869] | 6.78 |
| TCCCATATATATATATATATATATATATATAATAAT [TGCATGCA_negctrl_site41] | 7.65 |
| TGTATGTATTTGTGTAGTACGCATAAGTAATAAAAC [XGTACX_site6704] | 7.17 |
| AATTTATATTAAAATTGTACATTTCTTCTATAATAC [XGTACX_site8639] | 6.29 |
| AAATAAAAAAAATAAAAGCAATCATAATAAAAATCT [CACACA_negctrl_site161] | 6.34 |
| AATATATTTAATGAGTGTACATTATTTATTATTATT [XGTACX_site6889] | 6.3 |
| ATTTTTTATGAAAACATAAAAAAATGAGATAACCAT [CACACA_negctrl_site894] | 6.46 |
| AAAAAAAAAAGACACACACACACACGGACACATACA [CACACA_site7363] | 6.92 |
| CTATCAAATAATAGCAAACACACAAAAAATAAAAAA [CACACA_site4147] | 6.57 |
| AAAAAAAAAAAAAAATCACACATTGGTTAAATATTA [CACACA_site5344] | 6.37 |
| ATTCATACATGCACACGTACATATTTAAATATAAAA [XGTACX_site8388] | 8.36 |
| TCATGTTTTTAATATTGTACTCTCATTTTATATATC [XGTACX_site8412] | 6.41 |
| ATATTTACTCACGTCTTGCACTGAGCAAGCATTATA | 8.75 |

| Sequence | gcPBM binding intensity (ln) |
| --- | --- |
| AGCTATTAATTTATTACATGCAAGATTAAAAGACTA [TGCATGCA_site281] | 6.14 |
| TTTTGATTTTTTTATTGTACCCATAAACATATAATT [XGTACX_site5202] | 6.67 |
| TACAAACAATTAAACAAACACACATATACATGTATA [CACACA_site2061] | 6.46 |
| TATTTTTGAAGTTGCACACACAAAAATAAAAAGTAT [CACACA_site418] | 9.26 |
| TATATATTGCCCTTCACACACACACCCATATATATA [CACACA_site2493] | 7.45 |
| CACACCACCAACAAAAGTACATACATATATATATAT [XGTACX_site5781] | 9.02 |
| ATATATTATAAATGTAGTACCGTTACATAGTCATAG [XGTACX_site390] | 6.77 |
| ATCAAGCACGAACACACACACACACGCACGCCCACA [CACACA_site6308] | 7.4 |
| ACTACGAGTCGTAGAGTGCAGTCTGGAGAAAAGTAC [GTGCAC_site9769] | 7.3 |
| ATTTTTTTTTTTTGTACATACCACATATACAAAACA [CACACA_negctrl_site1240] | 6.94 |
| TTTTTTTTTTTCTCCATACACACTTGATAAAACTTT [CACACA_site615] | 6.57 |
| TAATTGATTCTTCACCGTACTCACACATATATATAT [XGTACX_site6530] | 8.53 |
| TATTTATACATACGTACACACAAATATTAAAATATA [CACACA_site7004] | 6.68 |
| TGTAAGTATTCTTGAGGTACACATATAAATATAGTA [XGTACX_site3207] | 6.18 |
| AATATTATATAATAAAGTACATATATATTCATATTT [XGTACX_site7204] | 6.34 |
| ATATATATATATAGGAGTACATGAAATACTTAAAAA [XGTACX_site8851] | 8.93 |
| GTGTGAAGATATAAATGCATTTTTTTATACATTTTC [CACACA_negctrl_site117] | 6.51 |
| AAAAAAGAAATAATCAAATAAATAAAAAAGATGAAT [XGTACX_negctrl_site607] | 6.78 |
| AAATATTAAATGGAAAACAAATATATATATCTTAAT [XGTACX_negctrl_site383] | 6.47 |
